Results as given in the supplement of paper PMC3334620.
The full ranking holds about 33,000 sequences; the median of “E-score (-0.5 to 0.5)” is about -0.035, and the highest 2% start at about 0.34. Some of the results follow.

Biological target: T1, Mot3 (UniProt P54785)
T1 sequence: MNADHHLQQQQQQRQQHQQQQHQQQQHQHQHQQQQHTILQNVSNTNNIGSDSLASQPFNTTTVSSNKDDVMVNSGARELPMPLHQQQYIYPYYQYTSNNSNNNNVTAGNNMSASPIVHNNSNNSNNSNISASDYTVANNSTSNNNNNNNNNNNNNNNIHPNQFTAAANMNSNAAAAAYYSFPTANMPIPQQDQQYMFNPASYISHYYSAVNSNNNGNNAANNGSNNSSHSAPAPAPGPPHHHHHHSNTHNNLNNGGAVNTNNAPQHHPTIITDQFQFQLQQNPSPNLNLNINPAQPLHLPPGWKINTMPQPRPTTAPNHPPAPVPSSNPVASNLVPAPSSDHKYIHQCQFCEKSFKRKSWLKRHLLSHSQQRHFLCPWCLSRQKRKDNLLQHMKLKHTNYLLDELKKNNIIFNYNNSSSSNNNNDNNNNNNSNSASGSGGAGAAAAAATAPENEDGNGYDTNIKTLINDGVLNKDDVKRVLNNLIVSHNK
Assay: PBM E-score (8-mer binding enrichment) (E-score (-0.5 to 0.5)); higher = stronger / more preferred TF binding; most listed sequences are background and not binding sites
Details: protein concentration: 200 nM; construct: GST-full length
Procedure, shortened: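 Full-length yeast transcription factors or their DNA-binding domains, GST-tagged and expressed with PURExpress, were applied at about 100-200 nM to universal all-10-mer Agilent arrays. These arrays had been made double-stranded by primer extension on fresh or once-stripped slides. Detection used fluorescent anti-GST, normalisation used masliner, and E-scores for ungapped eight-base words pooled with reverse complements came from the Universal PBM Analysis Suite.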

Row | Sequence | PBM E-score
1 | CGGCATAG | -0.0414
2 | CCCGACAG | -0.156
3 | ATTACGAA | 0.234
4 | ACCCCAGC | -0.0512
5 | ACGCAAAC | 0.0523
6 | ATATGAAT | -0.0552
7 | CCCGTTAG | -0.267
8 | AGGCCGGC | -0.174
9 | GATGGTGC | -0.079
10 | AGGTGCTA | 0.178
11 | ATGAACTA | 0.0464
12 | ACCTATGC | -0.0133
13 | CGCGTTAG | 0.187
14 | ACGTCTTC | -0.129
15 | CCCAGCCA | -0.194
16 | CCTCGGTA | -0.251
17 | ATGTCTAG | 0.0738
18 | ATACGTGA | 0.098
19 | ACTTGCGC | 0.0581
20 | AGGGAAGG | 0.0639
21 | TAAATCTA | 0.13
22 | AGCTGCGC | -0.139

Row | Sequence | PBM E-score
23 | CCATTCTC | -0.174
24 | ATAGTACA | 0.166
25 | CGGTGTAG | 0.0783
26 | AACGCAAT | 0.274
27 | AAGCATCA | -0.0962
28 | ACCACTTC | -0.267
29 | CCGCGCCC | -0.306
30 | AAGAGTAC | 0.0968
31 | GGCCCGGA | -0.204
32 | AATAGAGC | 0.0999
33 | CGTATGGC | -0.0713
34 | GTCTTGGA | -0.00695
35 | TCTCAAGA | -0.202
36 | CAAAATCA | 0.166
37 | CGAGGTCA | -0.268
38 | GCTCCCGA | -0.329
39 | ATAGTGTC | -0.133
40 | CGGTGAGC | -0.338
41 | CCTGTCTA | 0.0647
42 | AACCGAAC | -0.162
43 | CCGCTCGA | -0.265
44 | CGCAAGTA | 0.221

Row | Sequence | PBM E-score
45 | CCGAGAAG | -0.2
46 | CCGACAAA | -0.00029
47 | AGTTCACG | -0.0179
48 | CCTGGCGC | -0.266
49 | CGCTTCGC | -0.166
50 | AAGTTCAC | 0.0665
51 | CAACTCCC | -0.189
52 | CCCTGTAC | -0.0171
53 | AACCCAAT | 0.0174
54 | CAACCCAC | -0.125
55 | TGTTATAA | 0.35
56 | GCGGAGAA | -0.143
57 | AATGGACA | -0.0237
58 | ATTCACGG | -0.0552
59 | AGCTAGTG | -0.0926
60 | GTTAAGAA | 0.233
61 | CCTCGTGA | -0.233
62 | ATCCATCC | -0.191
63 | ACAAGGTC | 0.198
64 | AAGTCCAT | -0.0818
65 | GACGCAAC | -0.0695
66 | CATCATGC | -0.0246

Row | Sequence | PBM E-score
67 | AAGCGGAA | -0.0713
68 | GTAAGCCA | -0.0855
69 | ATTTCTTG | -0.0106
70 | CCCATCCG | -0.147
71 | CATTATGC | 0.00078
72 | GGGACACA | -0.157
73 | CCCATATA | -0.0469
74 | AGTGAAAC | -0.118
75 | GAGTTACA | 0.118
76 | CATATGAC | -0.0348
77 | ATATTCTC | -0.0374
78 | GCACTTCA | 0.0635
79 | CCTCGAAC | -0.0184
80 | CTCTCGGA | -0.159
81 | CATCACCG | -0.0699
82 | CGGATCTC | -0.307
83 | CATATAAA | 0.241
84 | TCTGAAAA | 0.0436
85 | ATGCAAAA | 0.149
86 | GAGCCACC | -0.332
